The values that follow come from a collection of fitness landscapes (doi:10.1126/science.1257360).

The list shows a part of the results.

The chains are these.
B1: PhoQ; a variant is named by its letters at X, in order, P23837 (parent)
chain: MKKLLRLFFPLSLRVRFLLATAAVVLVLSLAYGMVALIGYSVSFDKTTFRLLRGESNLFYTLAKWENNKLHVELPENIDKQSPTMTLIYDENGQLLWAQRDVPWLMKMIQPDWLKSNGFHEIEADVNDTSLLLSGDHSIQQQLQEVREDDDDAEMTHSVAVNVYPATSRMPKLTIVVVDTIPVELKSSYMVWSWFIYVLSANLLLVIPLLWVAAWWSLRPIEALAKEVRELEEHNRELLNPATTRELTSLVRNLNRLLKSERERYDKYRTTLTDLTHSLKTPLXXLQXXLRSLRSEKMSVSDAEPVMLEQISRISQQIGYYLHRASMRGGTLLSRELHPVAPLLDNLTSALNKVYQRKGVNISLDISPEISFVGEQNDFVEVMGNVLDNACKYCLEFVEISARQTDEHLYIVVEDDGPGIPLSKREVIFDRGQRVDTLRPGQGVGLAVAREITEQYEGKIVAGESMLGGARMEVIFGRQHSAPKDE

In this experiment the parent is B1. Nature of the experiment: enrichment ratio after two sorts for PhoP signalling (ratio (wild type AVST 3.29)); higher = more functional. The following applies: with PhoP (E. coli).
On to WAGG, for which the enrichment ratio was no more than 0.25.
As for AVNC, the enrichment ratio is no more than 0.25.
Consider MMWR, for which the enrichment ratio is no more than 0.25.
For the variant VFRH, the enrichment ratio was no more than 0.25.
Turning to MKSL, the enrichment ratio is no more than 0.25.
In the case of KTRH, the enrichment ratio was no more than 0.25.
Take NDTH: the enrichment ratio was no more than 0.25.
DQEP: the enrichment ratio was no more than 0.25.
Regarding VHYN, the enrichment ratio is no more than 0.25.
Take TDFR: the enrichment ratio was no more than 0.25.
With TRIQ, the enrichment ratio was no more than 0.25.
Regarding VMAE, the enrichment ratio was no more than 0.25.
The figure for MRCG is no more than 0.25.
With KQLN, the enrichment ratio was no more than 0.25.
For TNFC, the enrichment ratio was no more than 0.25.
On to RTSM, for which the enrichment ratio is no more than 0.25.
Regarding PLHY, the enrichment ratio is no more than 0.25.
Take NYYW: the enrichment ratio is no more than 0.25.
FTGK: the enrichment ratio was no more than 0.25.
Turning to FKFV, the enrichment ratio is no more than 0.25.
With IFKP the figure was no more than 0.25; with VDPQ, no more than 0.25; with KATP, no more than 0.25.
For the variant IKFD, the enrichment ratio is no more than 0.25.
Consider GYLI, for which the enrichment ratio stood at 0.357.
On to QKNG, for which the enrichment ratio was no more than 0.25.
For the variant YCVQ, the enrichment ratio was no more than 0.25.
Turning to YRNI, the enrichment ratio was no more than 0.25.
With GMIE the figure was no more than 0.25.
Turning to VDFN, the enrichment ratio was no more than 0.25.
FDCG: the enrichment ratio is no more than 0.25.
For the variant NTCS, the enrichment ratio is no more than 0.25.
In the case of TPDA, the enrichment ratio is no more than 0.25.
WGSV: the enrichment ratio is no more than 0.25.
As to AAVN, the enrichment ratio was no more than 0.25.
In the case of EGPI, the enrichment ratio was no more than 0.25.
Take KDYN: the enrichment ratio is no more than 0.25.
Regarding TCQK, the enrichment ratio turned out to be 14.2.
With TFWM, the enrichment ratio is no more than 0.25.
As for TRIW, the enrichment ratio was no more than 0.25.
LETP: the enrichment ratio was no more than 0.25.
The figure for IMSR is no more than 0.25.
HSKY: the enrichment ratio was no more than 0.25.
As to PGSW, the enrichment ratio was no more than 0.25.
On to EKHY, for which the enrichment ratio was no more than 0.25.
As for QNTM, the enrichment ratio is no more than 0.25.
For the variant QQNF, the enrichment ratio turned out to be 16.3.
Regarding WWAY, the enrichment ratio was no more than 0.25.
For VNHD, the enrichment ratio is no more than 0.25.
Consider KNKI, for which the enrichment ratio was no more than 0.25.
On to IDWA, for which the enrichment ratio was no more than 0.25.
In the case of DPPA, the enrichment ratio was no more than 0.25.
For the variant SAFL, the enrichment ratio came out at 3.78.
The figure for PNSI is no more than 0.25.
The figure for SRYC is no more than 0.25.
With KFVK the figure was no more than 0.25; with HPWQ, no more than 0.25.
For EEYA, the enrichment ratio was no more than 0.25.
With VHQH, the enrichment ratio is no more than 0.25.
With MAKK the figure was no more than 0.25.
As for WYVH, the enrichment ratio is no more than 0.25.
With ISEH the figure was no more than 0.25.
For the variant TMNC, the enrichment ratio is 15.3.
As to GPTF, the enrichment ratio is no more than 0.25.
For the variant KRFE, the enrichment ratio was no more than 0.25.
In the case of FREM, the enrichment ratio is no more than 0.25.
As to KGEL, the enrichment ratio was no more than 0.25.
Turning to RRHD, the enrichment ratio is no more than 0.25.
In the case of IYFN, the enrichment ratio was no more than 0.25.
The figure for HPTF is no more than 0.25.
PKIC: the enrichment ratio is no more than 0.25.
Turning to LDVD, the enrichment ratio is no more than 0.25.
In the case of TLCR, the enrichment ratio is no more than 0.25.
Regarding RGKT, the enrichment ratio was no more than 0.25.
With PSPF the figure was no more than 0.25; with RWYF, no more than 0.25; with IGTK, no more than 0.25.
In the case of AFIY, the enrichment ratio is no more than 0.25.
With GESA the figure was no more than 0.25.
With SHYS the figure was no more than 0.25; with IDRT, no more than 0.25; with IHGM, no more than 0.25.
The figure for WFWP is no more than 0.25; for GMER it is no more than 0.25.
With LQWC, the enrichment ratio was no more than 0.25.
For YHAC, the enrichment ratio was no more than 0.25.
For KVAY, the enrichment ratio is no more than 0.25.
Regarding PHAE, the enrichment ratio was no more than 0.25.
ADER: the enrichment ratio was no more than 0.25.
The figure for NTDS is no more than 0.25; for QMTI it is no more than 0.25; for TWHQ it is no more than 0.25.
Take ALIF: the enrichment ratio is no more than 0.25.
In the case of LNDI, the enrichment ratio is no more than 0.25.
Take PEVF: the enrichment ratio is no more than 0.25.
Regarding RFAC, the enrichment ratio was no more than 0.25.
Take HNWR: the enrichment ratio was no more than 0.25.
With MARL, the enrichment ratio is no more than 0.25.
Regarding RPHE, the enrichment ratio is no more than 0.25.
Consider HKET, for which the enrichment ratio is no more than 0.25.
Turning to DTLA, the enrichment ratio was no more than 0.25.
With SFFF, the enrichment ratio is no more than 0.25.
KCAE: the enrichment ratio is no more than 0.25.
Regarding QTQF, the enrichment ratio was no more than 0.25.
The figure for TVMR is 2.36; for AFFA it is no more than 0.25.
Take VPIN: the enrichment ratio is no more than 0.25.
With SSSQ, the enrichment ratio amounted to 9.
Consider LGCY, for which the enrichment ratio was no more than 0.25.
With RNRE, the enrichment ratio is no more than 0.25.
Take TKVI: the enrichment ratio was 30.1.
In the case of DVLV, the enrichment ratio is no more than 0.25.
Regarding MTRN, the enrichment ratio is no more than 0.25.
In the case of APCF, the enrichment ratio is no more than 0.25.
As for MKAT, the enrichment ratio is no more than 0.25.
In the case of SGNW, the enrichment ratio was no more than 0.25.
As to GDRN, the enrichment ratio was no more than 0.25.
SIDE: the enrichment ratio was no more than 0.25.
With SNYS the figure was no more than 0.25; with RQQR, no more than 0.25; with PCNI, no more than 0.25.
As for KKFT, the enrichment ratio was no more than 0.25.
As for DWDT, the enrichment ratio is no more than 0.25.
Turning to MGPK, the enrichment ratio is no more than 0.25.
Regarding TNGE, the enrichment ratio was no more than 0.25.
As to SRMW, the enrichment ratio is no more than 0.25.
In the case of AFDA, the enrichment ratio is no more than 0.25.
In the case of AGSD, the enrichment ratio is no more than 0.25.
As for DFLF, the enrichment ratio is no more than 0.25.
The figure for DITI is no more than 0.25.
As for VQFW, the enrichment ratio is no more than 0.25.
Consider EILL, for which the enrichment ratio came to 1.1.
With QFCF, the enrichment ratio was no more than 0.25.
The figure for MGKP is no more than 0.25.
As to AAPM, the enrichment ratio came out at 4.08.
On to NKEG, for which the enrichment ratio is no more than 0.25.
PQPM: the enrichment ratio was no more than 0.25.
In the case of KGLA, the enrichment ratio was no more than 0.25.
Consider KCYP, for which the enrichment ratio was no more than 0.25.
The figure for DQQS is no more than 0.25.
With ILCP the figure was no more than 0.25.
For the variant LLDA, the enrichment ratio was no more than 0.25.
VSQY: the enrichment ratio is no more than 0.25.
With NPYV the figure was no more than 0.25; with EFYD, no more than 0.25.
As to SCDI, the enrichment ratio is no more than 0.25.
Take ENYT: the enrichment ratio is no more than 0.25.
Consider KTIS, for which the enrichment ratio was no more than 0.25.
For the variant DVYC, the enrichment ratio was no more than 0.25.
Turning to RKAF, the enrichment ratio is no more than 0.25.
The figure for HCRC is no more than 0.25; for WYMA it is no more than 0.25; for AHYF it is no more than 0.25.
